Some of the results follow. Most values come without repeats; read them as rough.
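Also: cells treated in 1,536-well plates, then fixed and DAPI-stained, with nuclei counted from automated high-throughput microscope images.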

The test concerns COLO800. Description: cell count relative to DMSO control; melanoma cells; higher = more viable cells. The following applies: library dose: standard library concentration; 72 h.
Turning to `NC(=O)c1ccc(N(C(N)=O)c2c(F)cccc2F)nc1-c1ccc(F)cc1F` + CC(C)C[C@H](NC(=O)[C@H](Cc1ccccc1)NC(=O)c1cnccn1)B(O)O [Bortezomib] (first compound 2 µM, partner dose 0.005 µM), the cell count worked out at 71.5%.

Take `CCCCCCCCc1ccc(CCC(N)(CO)CO)cc1` [fingolimod] + c1cc(-c2cnn3cc(-c4ccc(OCCN5CCCCC5)cc4)cnc23)ccn1 [Dorsomorphin] (first compound 10 µM, partner dose 2 µM): the cell count was found to be 23.1%.

The compound `CN(NC(=O)CC(=O)NN(C)C(=S)c1ccccc1)C(=S)c1ccccc1` + N#Cc1c(O)c2c(-c3ccc(-c4ccccc4O)cc3)csc2[nH]c1=O [A769662] (first compound 0.03 µM, partner dose 10 µM) came in with a cell count of 13%.

The compound `CCCCCCCCc1ccc(CCC(N)(CO)CO)cc1` [fingolimod] + COc1cc2ncnc(Nc3ccc(Oc4ccccc4)cc3)c2cc1OC [SrcI1] (first compound 10 µM, partner dose 10 µM) returned a cell count of 10.9%.

In turn, `CC(C)(C)c1cnc(CSc2cnc(NC(=O)C3CCNCC3)s2)o1` + COc1cc2c(Oc3ccc4[nH]c(C)cc4c3F)ncnc2cc1OCCCN1CCCC1 [cediranib] (first compound 0.05 µM, partner dose 2 µM) returned a cell count of 57.1%.

`NC(=O)c1ccc(N(C(N)=O)c2c(F)cccc2F)nc1-c1ccc(F)cc1F` + Oc1cc(-c2nc(-c3ccccc3)[nH]c2-c2ccncc2)ccc1Cl [L779450] (first compound 2 µM, partner dose 1 µM) displayed a cell count of 103%.

In the case of `CCc1ccc(CCOc2ccc(CC3SC(=O)NC3=O)cc2)nc1` (stereo not drawn) [pioglitazone] + COc1ccc(COc2ccc(Cc3cnc(N)nc3N)cc2OC)cc1 [GW2580] (first compound 10 µM, partner dose 5 µM), the cell count was 80.6%.

On to `NC(=O)c1ccc(N(C(N)=O)c2c(F)cccc2F)nc1-c1ccc(F)cc1F` + CCN(CC)CCNC(=O)c1c(C)[nH]c(/C=C2\C(=O)Nc3ccc(F)cc32)c1C [sunitinib] (first compound 2 µM, partner dose 2 µM), for which the cell count is 78%.

In turn, `NC(=O)c1ccc(N(C(N)=O)c2c(F)cccc2F)nc1-c1ccc(F)cc1F` + Nc1cccc2c1CN(C1CCC(=O)NC1=O)C2=O [lenalidomide] (first compound 2 µM, partner dose 5 µM) showed a cell count of 68.8%.

Turning to `COc1cc2c(Oc3ccc4[nH]c(C)cc4c3F)ncnc2cc1OCCCN1CCCC1` [cediranib] + O=C(Nc1ccccc1)c1cc([N+](=O)[O-])ccc1Cl [GW9662] (first compound 2 µM, partner dose 10 µM), the cell count turned out to be 36.1%.

The compound `NC(=O)c1ccc(N(C(N)=O)c2c(F)cccc2F)nc1-c1ccc(F)cc1F` + CS(=O)(=O)CCNCc1ccc(-c2ccc3ncnc(Nc4ccc(OCc5cccc(F)c5)c(Cl)c4)c3c2)o1 [lapatinib] (first compound 2 µM, partner dose 4 µM) had a cell count of 58.6%.

`NC(=O)c1ccc(N(C(N)=O)c2c(F)cccc2F)nc1-c1ccc(F)cc1F` + C[C@]1(O)C[C@@H](c2nc(-c3ccc4ccc(-c5ccccc5)nc4c3)c3c(N)nccn32)C1 [OSI906] (first compound 2 µM, partner dose 2 µM) came in with a cell count of 55%.

Regarding `CC(C)(C)c1cnc(CSc2cnc(NC(=O)C3CCNCC3)s2)o1` + c1cc(-c2cnn3cc(-c4ccc(OCCN5CCCCC5)cc4)cnc23)ccn1 [Dorsomorphin] (first compound 0.05 µM, partner dose 2 µM), the cell count was 31.4%.

`NC(=O)c1ccc(N(C(N)=O)c2c(F)cccc2F)nc1-c1ccc(F)cc1F` + Cc1cc(Nc2cc(N3CCN(C)CC3)nc(/C=C/c3ccccc3)n2)n[nH]1 [ENMD2076] (first compound 2 µM, partner dose 0.2 µM) returned a cell count of 91.5%.

`NC(=O)c1ccc(N(C(N)=O)c2c(F)cccc2F)nc1-c1ccc(F)cc1F` + Cn1cncc1[C@@](N)(c1ccc(Cl)cc1)c1ccc2c(c1)c(-c1cccc(Cl)c1)cc(=O)n2C [tipifarnib] (first compound 2 µM, partner dose 0.05 µM) registered a cell count of 36.3%.

In turn, `NC(=O)c1ccc(N(C(N)=O)c2c(F)cccc2F)nc1-c1ccc(F)cc1F` + Cn1c(Nc2ccc(C(F)(F)F)cc2)nc2cc(Oc3ccnc(-c4ncc(C(F)(F)F)[nH]4)c3)ccc21 [CHIR265] (first compound 2 µM, partner dose 0.4 µM) displayed a cell count of 86.9%.

For the compound `NC(=O)c1ccc(N(C(N)=O)c2c(F)cccc2F)nc1-c1ccc(F)cc1F` + C=CCNC1=C2C[C@@H](C)C[C@H](OC)[C@H](O)[C@@H](C)/C=C(\C)[C@H](OC(N)=O)[C@@H](OC)/C=C\C=C(/C)C(=O)NC(=CC1=O)C2=O [Tanespimycin] (first compound 2 µM, partner dose 0.01 µM), the cell count worked out at 160%.

Regarding `CCCCCCCCc1ccc(CCC(N)(CO)CO)cc1` [fingolimod] + O=C(O)c1ccc2c(c1)nc(Nc1cccc(Cl)c1)c1ccncc12 [CX4945] (first compound 10 µM, partner dose 2 µM), the cell count was 16.4%.

Regarding `CCCCCCCCc1ccc(CCC(N)(CO)CO)cc1` [fingolimod] + C[C@@H](Oc1cc(-c2cnn(C3CCNCC3)c2)cnc1N)c1c(Cl)ccc(F)c1Cl [Crizotinib] (first compound 10 µM, partner dose 1 µM), the cell count was found to be 14.2%.

`CN(NC(=O)CC(=O)NN(C)C(=S)c1ccccc1)C(=S)c1ccccc1` + O=C(Nc1ccccc1)c1cc([N+](=O)[O-])ccc1Cl [GW9662] (first compound 0.03 µM, partner dose 10 µM) yielded a cell count of 10.7%.

Compound `CC(C)(C)c1cnc(CSc2cnc(NC(=O)C3CCNCC3)s2)o1` + NCC(=O)Nc1ccc(-n2nc(C(F)(F)F)cc2-c2ccc3c(ccc4ccccc43)c2)cc1 [OSU03012] (first compound 0.05 µM, partner dose 5 µM) came in with a cell count of 67.4%.

Compound `NC(=O)c1ccc(N(C(N)=O)c2c(F)cccc2F)nc1-c1ccc(F)cc1F` + CCN(CC)CCCCNc1ncc2cc(-c3cc(OC)cc(OC)c3)c(NC(=O)NC(C)(C)C)nc2n1 [PD173074] (first compound 2 µM, partner dose 0.5 µM) displayed a cell count of 80.2%.

As to `CCCCCCCCc1ccc(CCC(N)(CO)CO)cc1` [fingolimod] + CC(=O)c1c(C)c2cnc(Nc3ccc(N4CCNCC4)cn3)nc2n(C2CCCC2)c1=O [palbociclib] (first compound 10 µM, partner dose 0.2 µM), the cell count was determined as 16%.

Compound `CCCCCCCCc1ccc(CCC(N)(CO)CO)cc1` [fingolimod] + COc1ccc(-c2ccc3c(N4CCOCC4)nc(N4C[C@@H](C)O[C@@H](C)C4)nc3n2)cc1CO [KU0063794] (first compound 10 µM, partner dose 0.1 µM) displayed a cell count of 3.17%.

Regarding `NC(=O)c1ccc(N(C(N)=O)c2c(F)cccc2F)nc1-c1ccc(F)cc1F` + Cc1ccc(NC(=O)c2cccc(N(C)C)c2)cc1NC(=O)c1ccc(O)cc1 [ZM336372] (first compound 2 µM, partner dose 10 µM), the cell count stood at 125%.

`CCCCCCCCc1ccc(CCC(N)(CO)CO)cc1` [fingolimod] + CC(=O)O[C@@]12CO[C@@H]1C[C@H](O)[C@@]1(C)C(=O)[C@H](O)C3=C(C)[C@@H](OC(=O)[C@H](O)[C@@H](NC(=O)OC(C)(C)C)c4ccccc4)C[C@@](O)([C@@H](OC(=O)c4ccccc4)[C@H]21)C3(C)C [Docetaxel] (first compound 10 µM, partner dose 0.0005 µM) gave a cell count of 9.41%.

`CC(C)(C)c1cnc(CSc2cnc(NC(=O)C3CCNCC3)s2)o1` + O=C(O)C(=O)Nc1sc2c(c1C(=O)O)CCNC2 [TCS401] (first compound 0.05 µM, partner dose 8.33333 µM) yielded a cell count of 80%.

On to `CCc1ccc(CCOc2ccc(CC3SC(=O)NC3=O)cc2)nc1` (stereo not drawn) [pioglitazone] + N#Cc1c(O)c2c(-c3ccc(-c4ccccc4O)cc3)csc2[nH]c1=O [A769662] (first compound 10 µM, partner dose 10 µM), for which the cell count was 94.7%.

For the compound `CCCCCCCCc1ccc(CCC(N)(CO)CO)cc1` [fingolimod] + OCCn1cc(-c2cnc3nnn(Cc4ccc5ncccc5c4)c3n2)cn1 [PF04217903] (first compound 10 µM, partner dose 5 µM), the cell count came out at 10.8%.

With `Cc1ccc(NC(=O)c2cccc(N(C)C)c2)cc1NC(=O)c1ccc(O)cc1` + Cc1cc(N2CCOCC2)cc2[nH]c(-c3c(NC[C@@H](O)c4cccc(Cl)c4)cc[nH]c3=O)nc12 [BMS536924] (first compound 10 µM, partner dose 1 µM), the cell count was 55.1%.

Consider `COc1cc2c(Oc3ccc4[nH]c(C)cc4c3F)ncnc2cc1OCCCN1CCCC1` [cediranib] + Oc1nc(-c2ccc(C(F)(F)F)cc2)nc2c1CSCC2 [XAV939] (first compound 2 µM, partner dose 10 µM), for which the cell count was 118%.

`CCCCCCCCc1ccc(CCC(N)(CO)CO)cc1` [fingolimod] + N#Cc1c(O)c2c(-c3ccc(-c4ccccc4O)cc3)csc2[nH]c1=O [A769662] (first compound 10 µM, partner dose 10 µM) registered a cell count of 15.4%.

Regarding `CN(NC(=O)CC(=O)NN(C)C(=S)c1ccccc1)C(=S)c1ccccc1` + CCCCCCCCCCCC1=C(O)C(=O)C=C(O)C1=O [Embelin] (first compound 0.03 µM, partner dose 6 µM), the cell count is 25.8%.

The record behind these values is the supplement of paper PMC4604168 (melanoma cell lines).
